The results in this text go back to paper PMC4336329 (PLoS ONE, 2015).

Hit rate of the full screen: of about 310,000 compounds, about 14,000 (4.5%) showed an effect of 50% or more. The effect is printed as a negative number. The list shows a part of the results.
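Also: peak tail current of the secondary pulse compared with the same well before compound.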

The target in this test is human ether-à-go-go-related gene (hERG) potassium channel (human, UniProt Q12809). The experiment in a line: primary screen, population patch clamp on CHO cells stably expressing hERG.
human ether-à-go-go-related gene (hERG) potassium channel, sequence (Q12809 whole entry, looked up): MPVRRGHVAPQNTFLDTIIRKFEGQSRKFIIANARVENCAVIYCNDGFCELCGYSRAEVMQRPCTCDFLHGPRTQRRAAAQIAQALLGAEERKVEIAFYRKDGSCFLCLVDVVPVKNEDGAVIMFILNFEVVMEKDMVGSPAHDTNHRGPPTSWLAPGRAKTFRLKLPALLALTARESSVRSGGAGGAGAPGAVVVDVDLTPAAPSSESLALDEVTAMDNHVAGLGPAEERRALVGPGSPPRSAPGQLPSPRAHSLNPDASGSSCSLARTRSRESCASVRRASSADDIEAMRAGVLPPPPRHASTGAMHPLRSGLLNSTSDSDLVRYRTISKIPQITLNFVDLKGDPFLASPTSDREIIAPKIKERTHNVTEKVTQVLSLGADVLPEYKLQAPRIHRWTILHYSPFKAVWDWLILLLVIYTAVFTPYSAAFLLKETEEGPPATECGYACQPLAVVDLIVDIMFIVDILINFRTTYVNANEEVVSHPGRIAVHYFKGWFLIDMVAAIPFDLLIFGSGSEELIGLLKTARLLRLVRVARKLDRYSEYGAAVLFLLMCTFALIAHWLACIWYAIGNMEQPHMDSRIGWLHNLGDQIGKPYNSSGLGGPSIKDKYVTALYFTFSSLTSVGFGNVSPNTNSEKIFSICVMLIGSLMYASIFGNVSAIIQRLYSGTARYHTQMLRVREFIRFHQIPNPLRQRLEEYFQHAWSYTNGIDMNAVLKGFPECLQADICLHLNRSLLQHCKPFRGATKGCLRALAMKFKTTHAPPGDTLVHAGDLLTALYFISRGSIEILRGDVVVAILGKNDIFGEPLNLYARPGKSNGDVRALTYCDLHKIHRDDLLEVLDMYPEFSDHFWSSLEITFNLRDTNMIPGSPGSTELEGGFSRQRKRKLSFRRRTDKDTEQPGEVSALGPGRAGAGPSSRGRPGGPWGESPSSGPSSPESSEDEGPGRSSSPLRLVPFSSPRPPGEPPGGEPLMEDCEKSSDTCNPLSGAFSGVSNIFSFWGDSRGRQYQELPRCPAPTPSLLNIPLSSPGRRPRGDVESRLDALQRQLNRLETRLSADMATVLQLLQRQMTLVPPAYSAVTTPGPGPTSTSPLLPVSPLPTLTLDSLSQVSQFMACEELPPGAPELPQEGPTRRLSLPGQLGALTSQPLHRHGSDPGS
For the molecule `Cc1cc(Nc2ccc(C)c(Br)c2)n2nc(C)nc2n1`, the “hERG current change (%, negative = inhibition) at 10uM” value was -10.2%.
Under `COc1ccc(OC)c(C2=NOC(C(=O)Nc3cccc(C(C)=O)c3)C2)c1` (stereo not drawn) stands -12.4%.
For `COCCc1ncc(CN2CCCC(C(=O)Nc3cccc(-c4cccc(C)c4)c3)C2)cn1` (stereo not drawn), the “hERG current change (%, negative = inhibition) at 10uM” value was -56.6%.
For `O=S(=O)(Nc1ccccc1OC(F)F)c1ccc(S(=O)(=O)N2CCCC2)cc1`, the “hERG current change (%, negative = inhibition) at 10uM” value is -16.1%.
Under `CCN(CC)C(=O)N1CCN(C(=O)N(CC)CC)CC1` stands 8.36%; under `COc1ccc(-c2[nH]n(-c3ccc([N+](=O)[O-])cc3)c(=O)c2C=NCC2CCCO2)cc1` (stereo not drawn), 21.1%; under `O=C(CCc1ccccc1)Nc1ccc2c(c1)OCCO2`, -9.79%.
For the molecule `COC1CCN(C(=O)c2ccc(OC3CCN(CCc4ccccc4)CC3)cc2)CC1`, the “hERG current change (%, negative = inhibition) at 10uM” value is on record as -29.8%.
`CC12CC3CC(C)(C1)CC(C(=O)NCc1ccco1)(C3)C2`: the “hERG current change (%, negative = inhibition) at 10uM” value is -9.42%.
With `CC(O)c1c(-c2ccccc2)nn(C)c1Cl` (stereo not drawn), the “hERG current change (%, negative = inhibition) at 10uM” value was 22.9%.
With `COc1ccc(Cl)cc1NC(=O)CNc1ccccc1F` the figure was 15.5%; with `CCOC(=O)C1(CC2CC2)CCN(Cc2ccc3cccc(F)c3n2)CC1`, -48.3%; with `CC(C)c1c(C(=O)N/N=C/c2cccs2)nnn1-c1nonc1N`, 27.6%.
With `Cc1nnc(SCc2nc3ccccc3s2)n1N` the figure was 5.8%; with `Cc1sc2nc(CSC(C)C(=O)Nc3ccc(Cl)cn3)[nH]c(=O)c2c1C` (stereo not drawn), 8.94%; with `Oc1ccc2ccccc2c1C=Nc1ccccc1`, 3.96%.
Take `CCCCNc1nc2ccccc2nc1Cl`: the “hERG current change (%, negative = inhibition) at 10uM” value is reported as 12.2%.
`CC(C)OCCCNC(=S)NNC(=O)c1ccc(Cl)c(Cl)c1`: the “hERG current change (%, negative = inhibition) at 10uM” value was 1.09%.
Take `CN(c1ccccc1)S(=O)(=O)c1ccc(Cl)c(C(=O)Nc2nn[nH]n2)c1`: the “hERG current change (%, negative = inhibition) at 10uM” value is reported as 46.8%.
Under `O=C(Nc1nnc(C2CC2)s1)c1ccc(S(=O)(=O)c2ccccc2)cc1` stands 16.3%; under `CCOc1cc(C(=S)N2CCOCC2)ccc1OS(=O)(=O)c1ccccc1`, -10%; under `COc1cccc(NC(=O)COC(=O)C2CC3CCCC(C2)C3=O)c1` (stereo not drawn), -8.43%.
On to `FC(F)(F)c1cc(-c2ccc3c(c2)OCO3)nc(NCc2ccco2)n1`, for which the “hERG current change (%, negative = inhibition) at 10uM” value is on record as -6.85%.
As to `CCc1nnc(NC(=O)C2CCCN2S(=O)(=O)c2ccc(F)cc2)s1` (stereo not drawn), the “hERG current change (%, negative = inhibition) at 10uM” value is -7.69%.
On to `CCCCC(CC)Cn1c(N)c(C#N)c2nc3ccccc3nc21` (stereo not drawn), for which the “hERG current change (%, negative = inhibition) at 10uM” value came out at 2.28%.
Turning to `Cc1cc(C)c(C)c(S(=O)(=O)N2CCCCC2C(=O)O)c1C` (stereo not drawn), the “hERG current change (%, negative = inhibition) at 10uM” value is recorded as 11.4%.
On to `Cc1ccc(Cc2cnc(N)s2)o1`, for which the “hERG current change (%, negative = inhibition) at 10uM” value worked out at 4.19%.
As to `C=C(C)COc1ccc(-c2[nH]ncc2-c2ccccc2)c(O)c1`, the “hERG current change (%, negative = inhibition) at 10uM” value was 19%.
For `Cc1ccsc1/C=N/N1CCOCC1`, the “hERG current change (%, negative = inhibition) at 10uM” value was found to be 0.295%.
With `CN(CCOc1ccccc1)C(=S)Nc1ccc(OC(F)F)cc1`, the “hERG current change (%, negative = inhibition) at 10uM” value is on record as -55.2%.
As to `Cc1cc(C)n(-c2nc3ccccc3nc2N2CCN(S(=O)(=O)c3cccc(C#N)c3)CC2)n1`, the “hERG current change (%, negative = inhibition) at 10uM” value is -11.1%.
As to `CCN(CC)C(=O)Cn1c(=O)n(Cc2ccccc2Cl)c2c1c(=O)n(C)c(=O)n2C`, the “hERG current change (%, negative = inhibition) at 10uM” value is 2.2%.
For the molecule `Cc1cc(C(=O)CSc2nnnn2C)c(C)n1C1CC1`, the “hERG current change (%, negative = inhibition) at 10uM” value is listed as -1.55%.
Consider `Cc1ccc(N2C(=O)N(CC(=O)Nc3cc(Cl)ccc3C)C(=O)C2C)cc1` (stereo not drawn), for which the “hERG current change (%, negative = inhibition) at 10uM” value is -1.75%.
Under `COC(=O)N1C(=O)[C@@](c2ccccc2)(C(C)C)N1C(=O)OC` stands 19.3%; under `CCN(CC)CCN1C(=O)C(=O)/C(=C(/O)c2ccc(S(=O)(=O)N3CCOCC3)cc2)C1c1ccc(C(C)C)cc1` (stereo not drawn), 11.9%.
Under `CN(C)CCNc1ncnc2ccccc12.Cl` stands 7.66%; under `O=C(NNC(=O)c1cccs1)c1ccc(Cl)c([N+](=O)[O-])c1`, -6.26%; under `Cn1cccc1CC(=O)N/N=C/c1ccc(Cl)c([N+](=O)[O-])c1`, -16.5%.
Turning to `CCSC1=N/C(=C\C=C2/Oc3ccccc3N2CC)C(=O)S1`, the “hERG current change (%, negative = inhibition) at 10uM” value is on record as -3.2%.
`O=C(Nc1cccc(Br)c1)C1CCCC1`: the “hERG current change (%, negative = inhibition) at 10uM” value worked out at 13.3%.
`CSCCC(NC(=O)c1cccc(C)c1)C(=O)OCC(=O)NC(=O)c1cccn1C` (stereo not drawn): the “hERG current change (%, negative = inhibition) at 10uM” value was -0.791%.
`Cc1ccc(-c2nn(CC(=O)NN3CCOCC3)c(=O)c3ccccc23)cc1`: the “hERG current change (%, negative = inhibition) at 10uM” value is -1.66%.
Regarding `CC(C)c1nc(SCC(=O)N2CCCCCC2)c2c(=O)n(C)c(=O)n(C)c2n1`, the “hERG current change (%, negative = inhibition) at 10uM” value is -11.2%.
`CCC(Sc1ncnc2c1nnn2-c1ccc(F)cc1)C(=O)OC` (stereo not drawn): the “hERG current change (%, negative = inhibition) at 10uM” value is reported as -38.2%.
Consider `COc1ccc(C(=O)C[n+]2ccc(N(C)C)cc2)cc1.[Cl-]`, for which the “hERG current change (%, negative = inhibition) at 10uM” value stood at 17.6%.
Under `O=C(NC1CCCCC1)N1CCc2[nH]c3ccccc3c2C1` stands 3.15%; under `COc1ccccc1/C=C/CN1CCC(Oc2ccc(C(=O)N3CCCC3)cc2)CC1`, -24.3%; under `CCOC(=O)c1cc(-c2ccccc2)sc1NC(=S)Nc1cc(C)ccn1`, 26.3%.
For the molecule `Cc1nc(-c2ccc(C(=O)NCCO)cc2)cs1`, the “hERG current change (%, negative = inhibition) at 10uM” value is 19.8%.
On to `COc1ccc(Cl)cc1Nc1nc(-c2sc(NC(=O)c3ccco3)nc2C)cs1`, for which the “hERG current change (%, negative = inhibition) at 10uM” value came out at 21.9%.
Under `COc1ccccc1N(CC(=O)NC(C)(C)C)C(=O)CCC(=O)Nc1nccs1` stands -36.5%; under `O=C(NCCc1c[nH]c2ccccc12)c1ccc2nc[nH]c2c1`, -6.62%.
For `Cc1ccc(C)c(N2CCN(c3ccc([N+](=O)[O-])cn3)CC2)c1`, the “hERG current change (%, negative = inhibition) at 10uM” value is given as -5.89%.
With `Cc1ccc(S(=O)(=O)Nc2c(C)ccc3nsnc23)cc1` the figure was 2.3%.
As to `C/C(=N/NS(=O)(=O)c1ccc(Br)cc1)c1ccc(C)o1`, the “hERG current change (%, negative = inhibition) at 10uM” value is on record as -3.48%.
With `CC(C)CN1CCNC(=O)C1CC(=O)N(C)CC1CCOCC1` (stereo not drawn) the figure was 6.48%; with `CC(C)C[C@@H]1NC(=O)[C@H](Cc2ccc(O)cc2)NC(=O)c2cc([N+](=O)[O-])cc(I)c2NCCC[C@@H](C(N)=O)NC1=O`, -10.5%; with `Cc1ccc(/C=N/NC(=O)CNC(=O)c2ccc(S(=O)(=O)N3CCCC3)cc2)o1`, -0.107%.
With `COc1ccc(C2=NN(C(C#N)c3ccc(OC)c(OC)c3)C(c3ccccc3)C2)cc1` (stereo not drawn) the figure was 23.8%; with `COc1ccc(NC(=O)Nc2cccc(C)n2)c(OC)c1`, 10.4%.
On to `CN(C)C(CNC(=O)CNC(=O)c1ccc2ccccc2c1)c1ccccc1` (stereo not drawn), for which the “hERG current change (%, negative = inhibition) at 10uM” value is given as -20.2%.
As to `Cc1ccccc1S(=O)(=O)/N=C(/c1ccccc1)N1CCOCC1`, the “hERG current change (%, negative = inhibition) at 10uM” value is listed as 12.7%.
Take `COc1ccc(CCNC(=O)C(=O)NCC2CCCN2S(=O)(=O)c2ccccc2)cc1OC` (stereo not drawn): the “hERG current change (%, negative = inhibition) at 10uM” value is recorded as -26.6%.
With `c1csc(-c2nnc3ccccn23)c1` the figure was -3.19%; with `Cc1ccc(-c2nnc3ccc(SCC(=O)N4CCc5ccccc54)nn23)cc1`, -4.46%.
Turning to `CCNc1nc(N)nc(-c2cc(Cl)ccc2OC)n1`, the “hERG current change (%, negative = inhibition) at 10uM” value came to 5.75%.
Regarding `COc1ccc(NC(=S)N2CCN(S(=O)(=O)c3ccc(C)cc3)CC2)cc1`, the “hERG current change (%, negative = inhibition) at 10uM” value was determined as 5.38%.
With `Cc1ccc(N=C(NOC(=O)c2ccccc2)c2nonc2N)c(C)c1`, the “hERG current change (%, negative = inhibition) at 10uM” value is 8.26%.
As for `O=C(Oc1c(Cl)cc(Cl)c2ccccc12)N1CCCC1`, the “hERG current change (%, negative = inhibition) at 10uM” value was -25.9%.
With `COc1ccc(C2=NOC(C(=O)Nc3cccnc3Cl)C2)cc1` (stereo not drawn) the figure was 3.21%; with `CCCN(CCC)CCNc1c(NC2CCN(C(=O)OCC)CC2)c(=O)c1=O`, 13.4%.
For `Cc1ccc(NC(=O)CSCC(=O)NCc2ccco2)cc1`, the “hERG current change (%, negative = inhibition) at 10uM” value is -0.0131%.
Under `CC(C)(C)C1CCC2(CC1)CC(=O)c1ccccc1O2` (stereo not drawn) stands 19.8%.
On to `O=C(Nc1ccc(O)cc1)c1ccc2c(c1)C(=O)N(Cc1ccccc1)C2=O`, for which the “hERG current change (%, negative = inhibition) at 10uM” value is reported as -1.73%.
For the molecule `Cc1c(C(=O)NC(=S)Nc2ccc(N3CCOCC3)cc2)cccc1[N+](=O)[O-]`, the “hERG current change (%, negative = inhibition) at 10uM” value was found to be 7.46%.
Under `CN(C)c1ccc(N/C=C/C(=O)c2ccc(F)cc2)cc1` stands 20.2%.
In the case of `COC(=O)c1ccc(NC(=O)Nc2ccccc2C)cc1`, the “hERG current change (%, negative = inhibition) at 10uM” value was found to be 14.7%.
As to `Br.CCOC(=O)c1c(CSC(=N)N)n(C)c2cc(Br)c(OC(C)=O)cc12`, the “hERG current change (%, negative = inhibition) at 10uM” value is reported as -68.7%.
In the case of `S=C(Nc1ccc(Cl)cc1)NC1CC2CCC(C1)N2Cc1ccccc1` (stereo not drawn), the “hERG current change (%, negative = inhibition) at 10uM” value was -66.1%.
Consider `COc1ccc(CCN2Cc3c(cccc3[N+](=O)[O-])C2=O)cc1OC`, for which the “hERG current change (%, negative = inhibition) at 10uM” value is reported as -6.89%.
With `CCOC(=O)CSc1nc(=O)n2cccc(C)c2n1` the figure was -3.7%.
Under `CC(C)OC(=O)C1C(=O)CC(C)(O)C(C(=O)OC(C)C)C1c1cccc([N+](=O)[O-])c1` (stereo not drawn) stands 20.9%; under `O=C(O)C(=O)O.OCCNCCOCCOc1ccccc1-c1ccccc1`, 7.91%; under `CN(C)CCCNC(=O)C(=O)Nc1cc2c3c(c1)CC(=O)N3CCC2`, 16%.
With `Cc1ccc(S(=O)(=O)N2CCC(C(=O)NC3CCCC3)CC2)cc1Cl` the figure was 13.1%.
For the molecule `CC1CCN(S(=O)(=O)c2ccc([N+](=O)[O-])cc2)CC1`, the “hERG current change (%, negative = inhibition) at 10uM” value is given as -3.23%.
In the case of `O=[N+]([O-])c1ccc(-c2nnc(CNC3CCCC3)o2)cc1`, the “hERG current change (%, negative = inhibition) at 10uM” value is recorded as -30%.
Turning to `O=C(CSc1nc2ccccc2o1)Nc1ccccc1N1CCCCCC1`, the “hERG current change (%, negative = inhibition) at 10uM” value was 9.52%.
Turning to `N#Cc1nc(-c2ccccc2Cl)oc1N1CCCCC1`, the “hERG current change (%, negative = inhibition) at 10uM” value amounted to 1.41%.
